According to the RNAGym collection of RNA variant scans (doi:10.1093/nar/gkz1192):
The source gives no read counts; variants with many changes may rest on few reads.

B1: CPEB3 Ribozyme (parent)
chain: UAACAGGGGGCCACAGCAGAAGCGUUCACGUCGCAGCCCCUGUCAGAUUCUGGUGAAUCUGCGAAUUCUGCUGUAUAUCUC

Variants of: B1
Assay: self-cleavage, relative activity (ratio to wild type); higher = more cleavage; in vitro, sequencing
Outline: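 For each CPEB3 ribozyme variant, relative activity is its cleaved/total read fraction divided by the unmutated ribozyme's. Barcoded error-prone PCR libraries were transcribed by T7 RNA polymerase (5 hours, 37°C) and held in DNase I for 15 min before an EDTA stop, with cleavage occurring throughout. Template-switching reverse transcription and Illumina sequencing were used to read the RNAs. A 5-read minimum applied, and results are the mean of three batches.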
Work on U1C A3G A13U C37A U58A U67C yielded a self-cleavage of 0.07.
U1C A3G A20G U31C U54C C62U U67C gave a self-cleavage of 0.09.
U1C A3G C12A U49C U51C U54C gave a self-cleavage of 0.13.
For U1C A3G G9U U26C U43C, the self-cleavage was 0.01.
With U1C A3G U25C the self-cleavage was 0.67.
U1C A3G U58C U78C U80C gave a self-cleavage of 0.17.
Work on U1C A3G U66A yielded a self-cleavage of 0.49.
With U1C A3U A18G U31C the self-cleavage was 0.19.
Work on U1C A3U A20U U49C A64G yielded a self-cleavage of 0.11.
In the case of U1C A3U C27U, the self-cleavage is reported as 0.08.
For U1C A5C A64G U80C, the self-cleavage was 1.04.
U1C A5C G7U U78C gave a self-cleavage of 0.32.
In the case of U1C A5C U74C, the self-cleavage is reported as 1.06.
For U1C A5G A20G U66G U76C U80C, the self-cleavage was 0.06.
For U1C A5G A21C, the self-cleavage was 0.13.
With U1C A5G A35G C40U A45G U54A the self-cleavage was 0.32.
U1C A5G A45G U80C showed a self-cleavage of 0.93.
For U1C A5G C17U A28U A35G C39U U60C, the self-cleavage was 0.09.
In the case of U1C A5G G6U A20C U26C U80C, the self-cleavage is reported as 0.02.
U1C A5G G7A G22C U26C A56C A57G gave a self-cleavage of 0.05.
In the case of U1C A5G G8U A21G A45G U58A U67C, the self-cleavage is reported as 0.05.
Variant U1C A5G G9A U43C U48C U54C U69A has a self-cleavage of 0.05.
U1C A5G U25C A35G U43C A47C gave a self-cleavage of 0.56.
Variant U1C A5U A20G U26C G52U U58C has a self-cleavage of 0.5.
Variant U1C A5U C23U A28U U58C U69C U78C has a self-cleavage of 0.07.
Variant U1C A5U C23U G61A has a self-cleavage of 0.12.
Variant U1C A5U G7C G19A U25A U49A A77G has a self-cleavage of 0.04.
Work on U1C A5U U26C C38U G52U U67C yielded a self-cleavage of 0.2.
Variant U1C A5U U31C A35C U41A U51A U54C has a self-cleavage of 0.29.
Work on U1C A5U U51A G61C yielded a self-cleavage of 0.52.
With U1C A5U U60C the self-cleavage was 0.67.
Variant U1C A13C U31C G33A A45U U49C has a self-cleavage of 0.08.
Work on U1C A13G A15G A21G U31C U54C yielded a self-cleavage of 0.36.
U1C A13G A20G U43A U66A showed a self-cleavage of 0.18.
Work on U1C A13G A21G C37U C62U U72C yielded a self-cleavage of 0.04.
With U1C A13G A28C A57G G63C U72A the self-cleavage was 0.19.
In the case of U1C A13G A35G U58C, the self-cleavage is reported as 0.48.
U1C A13G A64U gave a self-cleavage of 0.11.
Work on U1C A13G U25C C37U A45U G70C U78C yielded a self-cleavage of 0.05.
Variant U1C A13G U31C U69C has a self-cleavage of 0.22.
U1C A13G U41A U54C U58C gave a self-cleavage of 0.08.
With U1C A13G U41C A45G the self-cleavage was 0.61.
Variant U1C A13G U41C U80C has a self-cleavage of 0.97.
Variant U1C A13G U48C U60C C79U has a self-cleavage of 0.36.
With U1C A13U A15G U26C the self-cleavage was 0.6.
Work on U1C A13U A20G A35G A47G A57U U78C yielded a self-cleavage of 0.2.
For U1C A13U A21U A45G U78C, the self-cleavage was 0.07.
Work on U1C A13U G24C A45G A75G yielded a self-cleavage of 0.03.
Variant U1C A13U G46U U54A G63A U76C U80A has a self-cleavage of 0.13.
U1C A13U U25A U66C gave a self-cleavage of 0.06.
For U1C A13U U25C A57G U69C, the self-cleavage was 0.24.
U1C A13U U31G A35G U43C U78C gave a self-cleavage of 0.8.
Variant U1C A15C U26G U60C has a self-cleavage of 0.44.
U1C A15G A18G U25C A28G gave a self-cleavage of 0.63.
For U1C A15G A20G U72A, the self-cleavage was 0.09.
U1C A15G A21G U41A showed a self-cleavage of 0.52.
With U1C A15G G42U the self-cleavage was 0.17.
Variant U1C A15G U41C A64G G73A has a self-cleavage of 0.92.
For U1C A15G U41C U43C, the self-cleavage was 0.43.
With U1C A15G U41C U51A U67C U72C the self-cleavage was 0.14.
In the case of U1C A15G U43A, the self-cleavage is reported as 0.72.
In the case of U1C A15U A35U U72C, the self-cleavage is reported as 0.53.
U1C A15U A56G gave a self-cleavage of 0.35.
Variant U1C A15U C17U C34U A77G has a self-cleavage of 0.24.
For U1C A15U G24U U66G, the self-cleavage was 0.17.
In the case of U1C A15U G42U U43A A45G U72C, the self-cleavage is reported as 0.05.
In the case of U1C A15U U26A U31C A65G, the self-cleavage is reported as 0.25.
With U1C A15U U26A U69C U72A the self-cleavage was 0.07.
With U1C A15U U26C A45G U51C U58C the self-cleavage was 0.49.
Work on U1C A15U U43C yielded a self-cleavage of 0.71.
In the case of U1C A15U U43C A65U U69C U72C, the self-cleavage is reported as 0.15.
U1C A15U U58A C59U showed a self-cleavage of 0.2.
For U1C A15U U58C, the self-cleavage was 0.24.
For U1C A18C A21G U78C, the self-cleavage was 0.05.
U1C A18C C37A U60C G73A showed a self-cleavage of 0.03.
U1C A18G A20G C40U U51A U66C U80C showed a self-cleavage of 0.25.
U1C A18G A45U A56C U67C showed a self-cleavage of 0.21.
Variant U1C A18G A56G U78C has a self-cleavage of 0.33.
Work on U1C A18G C34U U41C U43A A56G U67C yielded a self-cleavage of 0.
In the case of U1C A18G G33A A35G C68U U72C, the self-cleavage is reported as 0.19.
With U1C A18G U26C the self-cleavage was 0.59.
Work on U1C A18G U26C A28G U48C yielded a self-cleavage of 0.26.
For U1C A18G U26C A35G A64G U72C, the self-cleavage was 0.1.
U1C A18G U43C gave a self-cleavage of 0.51.
Work on U1C A18G U49A U72A A77U yielded a self-cleavage of 0.19.
In the case of U1C A18G U60A U74C, the self-cleavage is reported as 0.26.
For U1C A18U A45U U51C, the self-cleavage was 0.26.
For U1C A18U A64G C68G G73A, the self-cleavage was 0.08.
For U1C A18U C37U A45U A64G, the self-cleavage was 0.05.
U1C A18U C40A U69G U72G gave a self-cleavage of 0.05.
Variant U1C A18U U26C U80C has a self-cleavage of 0.39.
In the case of U1C A18U U51C A64G U80C, the self-cleavage is reported as 0.42.
U1C A20G A45C showed a self-cleavage of 0.33.
For U1C A20G A57G U69A U72C, the self-cleavage was 0.23.
For U1C A20G G52A, the self-cleavage was 0.91.
U1C A20G U31C A45G U48C showed a self-cleavage of 0.41.
Work on U1C A20G U43C U60A A65G yielded a self-cleavage of 0.05.
U1C A20U A47G A56G gave a self-cleavage of 0.3.
For U1C A20U U41A U43A U60C, the self-cleavage was 0.07.
For U1C A20U U54A, the self-cleavage was 0.35.
Variant U1C A21C U72A has a self-cleavage of 0.2.
Variant U1C A21G A35G U49G has a self-cleavage of 0.26.
In the case of U1C A21G A64U U78C, the self-cleavage is reported as 0.07.
U1C A21G U25C showed a self-cleavage of 0.42.
Work on U1C A21G U54C yielded a self-cleavage of 0.62.
With U1C A21U U31C U54C A56G C71U the self-cleavage was 0.04.
For U1C A28G A64G, the self-cleavage was 0.37.
U1C A28G U31A showed a self-cleavage of 0.2.
U1C A28G U31A C50U U80C gave a self-cleavage of 0.07.
Work on U1C A28G U41A yielded a self-cleavage of 0.36.
In the case of U1C A28G U60A, the self-cleavage is reported as 0.12.
U1C A28U G53A showed a self-cleavage of 0.77.
U1C A28U U41A C50U G52U U72C showed a self-cleavage of 0.06.
U1C A35G A45G U49C U76C U78A gave a self-cleavage of 1.13.
With U1C A35G A47G the self-cleavage was 1.
U1C A35G G52A U72A gave a self-cleavage of 1.25.
For U1C A35G U43C A56G G70U U80C, the self-cleavage was 0.24.
U1C A35U U51C G70C showed a self-cleavage of 0.17.
For U1C A35U U67C, the self-cleavage was 0.16.
For U1C A45G A56G A64G, the self-cleavage was 0.28.
U1C A45G U54C U60A showed a self-cleavage of 0.47.
In the case of U1C A45G U66C U69C, the self-cleavage is reported as 0.16.
In the case of U1C A45U U49C U54C, the self-cleavage is reported as 0.22.
In the case of U1C A56C G70A, the self-cleavage is reported as 0.43.
Variant U1C A56U A65G U76C has a self-cleavage of 0.11.
U1C A57G U66C gave a self-cleavage of 0.22.
Variant U1C A64U U66C G70A has a self-cleavage of 0.2.
Variant U1C A64U U66C U80A has a self-cleavage of 0.15.
For U1C A64U U66G U80A, the self-cleavage was 0.1.
For U1C C4G A28G A35G A65G, the self-cleavage was 0.95.
For U1C C4G U43C, the self-cleavage was 0.72.
Work on U1C C4U A28C A45U yielded a self-cleavage of 0.18.
For U1C C11A U25A U66C U78A, the self-cleavage was 0.24.
In the case of U1C C11G C12G A18G, the self-cleavage is reported as 0.42.
Work on U1C C11G C12G A28G U43C yielded a self-cleavage of 0.06.
Variant U1C C11G C14U C40U A56G A57G A64U has a self-cleavage of 0.03.
U1C C11G U26A A47G U72A showed a self-cleavage of 0.09.
In the case of U1C C11U A15G C32A U43A, the self-cleavage is reported as 0.06.
With U1C C11U U25C A64U U76C A77U the self-cleavage was 0.19.
Variant U1C C11U U72A U76C has a self-cleavage of 0.2.
In the case of U1C C12A U41C A56G C62G A65G, the self-cleavage is reported as 0.15.
Variant U1C C12U A28G U60A has a self-cleavage of 0.32.
With U1C C12U U26A U54C the self-cleavage was 1.14.
Variant U1C C12U U48A G61C U66A has a self-cleavage of 0.16.
U1C C14G A15U C23U showed a self-cleavage of 0.06.
In the case of U1C C14U U43G U67C, the self-cleavage is reported as 0.17.
U1C C17G A20G U58C showed a self-cleavage of 0.24.
For U1C C17G U49C, the self-cleavage was 0.32.
U1C C17U U58C gave a self-cleavage of 0.3.
In the case of U1C C23G U54A, the self-cleavage is reported as 0.09.
Work on U1C C27G A56U U58A yielded a self-cleavage of 0.17.
For U1C C27U U41A G53C, the self-cleavage was 0.27.
U1C C27U U72C U74C U76A showed a self-cleavage of 0.38.
Variant U1C C29G U54C U60C has a self-cleavage of 0.05.
Work on U1C C29U A57U yielded a self-cleavage of 0.39.
Work on U1C C32U C62A yielded a self-cleavage of 0.52.
Variant U1C C38A U78A has a self-cleavage of 0.26.
U1C C44G U54A A64G showed a self-cleavage of 0.37.
With U1C C62A U69C the self-cleavage was 0.35.
For U1C G6A A45G G73U U74A, the self-cleavage was 0.58.
For U1C G6U A13U C44U A56U U76A U78C, the self-cleavage was 0.04.
With U1C G6U G30C U41C U51C the self-cleavage was 0.05.
U1C G7A C29U C68A U69C U78C showed a self-cleavage of 0.04.
U1C G7C A18U A28G G33U G53C G73U showed a self-cleavage of 0.03.
Variant U1C G7C U26A U54C U78A has a self-cleavage of 0.04.
Variant U1C G7C U69C has a self-cleavage of 0.41.
With U1C G7U C14U A20U A45U U69C U80C the self-cleavage was 0.04.
